Data from patent CN114805562A (GUANGDONG FAPON PHARMACEUTICAL CO LTD, dated 2022).

Assays:
[1] = biological target: T1, Delta变异株新型冠状病毒SARS-COV-2 RBD蛋白 (SARS-COV-2 (Delta变异株)); test: competition ELISA: coated Delta RBD, antibody titrated, then ACE2
T1 construct: domain: RBD; also called Delta variant SARS-CoV-2 RBD

[2] = biological target: T2, Omicron变异株新型冠状病毒SARS-COV-2 RBD蛋白 (SARS-COV-2 (Omicron变异株)); test: competition ELISA: coated Omicron RBD, antibody titrated, then ACE2
T2 construct: domain: RBD; also called Omicron variant SARS-CoV-2 RBD

B1: 驼源性纳米抗体 R1382 (RX011 VHH linked directly to hIgG1-Fc) (Fc fusion)
chain: QVQLVESGGGPVQAGGSLRLSCTCSRCTFNWDGMGWFRQAPGKEREFVATISWSGQEPAYADSVKGRFTISRDKPKNTVYLQMTSLKSEDTAVYYCAAAQYTGASYSILRDQVGYDYWGQGTRVTVSA[letters of human IgG1 Fc with changes omitted]
notes: also called RX011-hIgG1-Fc; 对照组
IC50 [1]: 0.0137 nM
IC50 [2]: 0.17 nM
